# Experimental data published in a collection of fitness landscapes (doi:10.1126/science.1257360).
# Some of the results follow.
# B1: PhoQ; a variant is named by its letters at X, in order, P23837 (parent)
# chain: MKKLLRLFFPLSLRVRFLLATAAVVLVLSLAYGMVALIGYSVSFDKTTFRLLRGESNLFYTLAKWENNKLHVELPENIDKQSPTMTLIYDENGQLLWAQRDVPWLMKMIQPDWLKSNGFHEIEADVNDTSLLLSGDHSIQQQLQEVREDDDDAEMTHSVAVNVYPATSRMPKLTIVVVDTIPVELKSSYMVWSWFIYVLSANLLLVIPLLWVAAWWSLRPIEALAKEVRELEEHNRELLNPATTRELTSLVRNLNRLLKSERERYDKYRTTLTDLTHSLKTPLXXLQXXLRSLRSEKMSVSDAEPVMLEQISRISQQIGYYLHRASMRGGTLLSRELHPVAPLLDNLTSALNKVYQRKGVNISLDISPEISFVGEQNDFVEVMGNVLDNACKYCLEFVEISARQTDEHLYIVVEDDGPGIPLSKREVIFDRGQRVDTLRPGQGVGLAVAREITEQYEGKIVAGESMLGGARMEVIFGRQHSAPKDE
# Variants of: B1
# Assay: enrichment ratio after two sorts for PhoP signalling (ratio (wild type AVST 3.29)); higher = more functional
# Details: with PhoP (E. coli)
row,Variant,enrichment ratio
1,EGCP,≤ 0.25
2,VSNH,0.52
3,DVHV,≤ 0.25
4,ESPK,≤ 0.25
5,YIKL,≤ 0.25
6,HNHR,≤ 0.25
7,HFMQ,≤ 0.25
8,VCQG,≤ 0.25
9,RICI,≤ 0.25
10,HTNK,≤ 0.25
11,ILSC,≤ 0.25
12,HSIQ,≤ 0.25
13,KYMI,≤ 0.25
14,DESW,≤ 0.25
15,DPGI,≤ 0.25
16,HGII,≤ 0.25
17,YRAR,≤ 0.25
18,QYCH,≤ 0.25
19,DATY,≤ 0.25
20,CFPW,≤ 0.25
21,GSYS,≤ 0.25
22,PYQE,≤ 0.25
23,LMCC,≤ 0.25
24,WFYL,≤ 0.25

row,Variant,enrichment ratio
1,WFFK,≤ 0.25
2,NIWK,≤ 0.25
3,VQGK,≤ 0.25
4,KNDC,≤ 0.25
5,PGNT,≤ 0.25
6,IKRA,≤ 0.25
7,TDIP,≤ 0.25
8,ITWG,≤ 0.25
9,ETPF,≤ 0.25
10,NPCM,≤ 0.25
11,VTIE,≤ 0.25
12,QSMA,≤ 0.25
13,FIWT,≤ 0.25
14,YERN,≤ 0.25
15,FEIT,1.84
16,MECG,9.16
17,YTVH,≤ 0.25
18,HYTH,≤ 0.25
19,DFPS,≤ 0.25
20,ECGA,≤ 0.25
21,MHKS,≤ 0.25
22,ALSD,≤ 0.25
23,RPWA,≤ 0.25
24,HLPF,≤ 0.25

row,Variant,enrichment ratio
1,WTIA,≤ 0.25
2,DWEP,≤ 0.25
3,RNKY,≤ 0.25
4,PNGT,≤ 0.25
5,RIMD,≤ 0.25
6,VEVP,≤ 0.25
7,QRAD,≤ 0.25
8,RCLS,≤ 0.25
9,NESV,≤ 0.25
10,NYHV,≤ 0.25
11,RWMC,≤ 0.25
12,KTQY,≤ 0.25
13,EFAY,≤ 0.25
14,YHCH,≤ 0.25
15,HNDR,≤ 0.25
16,KGDS,≤ 0.25
17,HCFY,≤ 0.25
18,SFHV,≤ 0.25
19,ISCT,≤ 0.25
20,SNEN,≤ 0.25
21,LKMQ,≤ 0.25
22,KHSF,≤ 0.25
23,TPFQ,≤ 0.25
24,GWFQ,≤ 0.25

row,Variant,enrichment ratio
1,GWCP,≤ 0.25
2,DMST,≤ 0.25
3,QSTF,≤ 0.25
4,EVCP,≤ 0.25
5,FLFN,≤ 0.25
6,TSDN,≤ 0.25
7,WPAV,≤ 0.25
8,MDMH,≤ 0.25
9,PGKS,≤ 0.25
10,SCFR,0.298
11,PSHC,≤ 0.25
12,WNIR,≤ 0.25
13,HRHD,≤ 0.25
14,SENH,3.92
15,YHCN,≤ 0.25
16,WEDP,≤ 0.25
17,VARN,≤ 0.25
18,GDGR,≤ 0.25
19,TQHQ,13.8
20,TSYQ,9.35
21,TYPH,≤ 0.25
22,YPYR,0.406
23,KLEI,≤ 0.25
24,GGFC,≤ 0.25

row,Variant,enrichment ratio
1,TYWF,≤ 0.25
2,ANWP,≤ 0.25
3,VRVE,≤ 0.25
4,KKRY,≤ 0.25
5,IFRA,≤ 0.25
6,MDPY,≤ 0.25
7,HNYM,≤ 0.25
8,PYIS,≤ 0.25
9,VAST,≤ 0.25
10,TEVH,16.3
11,HDDR,≤ 0.25
12,TPGG,≤ 0.25
13,AWPW,≤ 0.25
14,SGHN,≤ 0.25
15,TKQP,≤ 0.25
16,PCYD,≤ 0.25
17,GIAL,13
18,QYMN,≤ 0.25
19,GMSQ,≤ 0.25
20,VLKS,≤ 0.25
21,AMVR,2.19
22,TQQI,11.5
23,VTQN,≤ 0.25
24,MRNY,≤ 0.25

row,Variant,enrichment ratio
1,LEWY,≤ 0.25
2,IHHD,≤ 0.25
3,MALL,16.2
4,YYWQ,≤ 0.25
5,WKTS,≤ 0.25
6,GWEF,≤ 0.25
7,TMLV,4.6
8,NTMQ,≤ 0.25
9,WPWY,≤ 0.25
10,ESCR,≤ 0.25
11,WDFV,≤ 0.25
12,VWVI,≤ 0.25
13,TCMI,15
14,TVHQ,≤ 0.25
15,VAPA,≤ 0.25
16,QSIP,≤ 0.25
17,AFGQ,≤ 0.25
18,HFCP,≤ 0.25
19,ALPN,≤ 0.25
20,RVIE,≤ 0.25
21,WLKD,≤ 0.25
22,GEHW,≤ 0.25
23,MYPM,≤ 0.25
24,YDFH,≤ 0.25

row,Variant,enrichment ratio
1,HHQQ,≤ 0.25
2,HSRQ,≤ 0.25
3,GMVR,≤ 0.25
4,TYIG,≤ 0.25
5,NDHT,≤ 0.25
6,HTTG,≤ 0.25
7,DGGI,≤ 0.25
8,DCPA,≤ 0.25
9,KWLP,≤ 0.25
10,LSDY,≤ 0.25
11,TQQA,2.61
12,RRWN,≤ 0.25
13,NNSP,≤ 0.25
14,ACGH,13.6
15,HHMA,≤ 0.25
16,YRFG,≤ 0.25
17,DRQC,≤ 0.25
18,QTYR,≤ 0.25
19,VPEK,≤ 0.25
20,PKRH,≤ 0.25
21,WPNK,≤ 0.25
22,QLWM,12.6
23,RDFW,≤ 0.25
24,MAQR,≤ 0.25

row,Variant,enrichment ratio
1,AQLN,31.6
2,IDYC,≤ 0.25
3,MCDY,≤ 0.25
4,HYDV,≤ 0.25
5,ETQL,≤ 0.25
6,DKEW,≤ 0.25
7,LGIW,≤ 0.25
8,DQCF,≤ 0.25
9,NYRD,≤ 0.25
10,NDPG,≤ 0.25
11,FPVQ,≤ 0.25
12,NHRF,≤ 0.25
13,DFLA,≤ 0.25
14,TCRH,≤ 0.25
15,VTHD,≤ 0.25
16,DHTV,≤ 0.25
17,DTWA,≤ 0.25
18,PSHM,≤ 0.25
19,KCSA,≤ 0.25
20,APAT,≤ 0.25
21,QKGQ,≤ 0.25
22,EFVT,≤ 0.25
23,YPVK,≤ 0.25
24,MKWW,≤ 0.25

row,Variant,enrichment ratio
1,YTTY,≤ 0.25
2,GFFP,≤ 0.25
3,DQMG,≤ 0.25
4,DRCQ,≤ 0.25
5,QRQQ,≤ 0.25
6,DEQC,≤ 0.25
7,AWRV,≤ 0.25
8,HEDM,≤ 0.25
9,TRIM,6.38
10,IANW,≤ 0.25
11,DLNM,≤ 0.25
12,RDII,≤ 0.25
13,PFWE,≤ 0.25
14,RVLC,≤ 0.25
15,HFIA,≤ 0.25
16,FRKY,≤ 0.25
17,VVKS,≤ 0.25
18,CCPS,≤ 0.25
19,WTPH,≤ 0.25
20,SHHY,≤ 0.25
21,FRRF,≤ 0.25
22,CFPL,≤ 0.25
23,SCCI,9.92
24,NGMW,≤ 0.25

row,Variant,enrichment ratio
1,NGAG,≤ 0.25
2,AGKR,≤ 0.25
3,TFGD,≤ 0.25
4,RRLP,≤ 0.25
5,FEKS,≤ 0.25
6,LVGK,≤ 0.25
7,SDRL,≤ 0.25
8,YHDK,≤ 0.25
9,LVHL,≤ 0.25
10,HALP,≤ 0.25
11,RESQ,≤ 0.25
12,LGKF,≤ 0.25
13,WRKK,≤ 0.25
14,VWTD,≤ 0.25
15,LVSV,≤ 0.25
16,NPTH,≤ 0.25
17,KTDL,≤ 0.25
18,LHAM,≤ 0.25
19,QSTS,≤ 0.25
20,KPGH,≤ 0.25
21,FVHF,≤ 0.25
22,WLER,≤ 0.25
23,GYAC,≤ 0.25
24,LGDH,≤ 0.25

row,Variant,enrichment ratio
1,IGEM,≤ 0.25
2,KMQM,≤ 0.25
3,TMYT,≤ 0.25
4,MTWW,≤ 0.25
5,KQCP,≤ 0.25
6,DHDQ,≤ 0.25
7,MNKY,≤ 0.25
8,MMSA,≤ 0.25
9,RINC,≤ 0.25
10,FQVT,≤ 0.25
11,GNLM,17.5
12,SFEN,≤ 0.25
13,DWGK,≤ 0.25
14,HSMG,1.29
15,FSQC,≤ 0.25
16,LDAH,≤ 0.25
17,IRNP,≤ 0.25
18,VRDP,≤ 0.25
19,IFNC,≤ 0.25
20,QNHF,≤ 0.25
21,IMMF,≤ 0.25
22,NNAV,5.85
23,AKMV,6.86
24,MLVC,≤ 0.25

row,Variant,enrichment ratio
1,HNPN,≤ 0.25
2,MNQF,≤ 0.25
3,VCRR,≤ 0.25
4,GKQE,≤ 0.25
5,KHWW,≤ 0.25
6,ARVY,≤ 0.25
7,MDTS,≤ 0.25
8,MYCH,≤ 0.25
9,TPHQ,≤ 0.25
10,FMGR,≤ 0.25
11,IPWA,≤ 0.25
12,DMHF,≤ 0.25
13,RQDS,≤ 0.25
14,QPVD,≤ 0.25
15,QRFT,≤ 0.25
16,YATK,≤ 0.25
17,QQMY,≤ 0.25
18,RWAG,≤ 0.25
19,GLNL,≤ 0.25
20,PKVA,≤ 0.25
21,HGCY,≤ 0.25
22,LAYL,10.5
23,GIIR,3.63
24,LKGS,≤ 0.25

row,Variant,enrichment ratio
1,TCKG,≤ 0.25
2,PVFT,≤ 0.25
3,YYTM,≤ 0.25
4,TMMF,≤ 0.25
5,GVNG,≤ 0.25
6,SPSD,≤ 0.25
7,WCQF,≤ 0.25
8,PVAD,≤ 0.25
9,QYHD,≤ 0.25
10,HRSR,≤ 0.25
11,YFAL,≤ 0.25
12,QVDW,≤ 0.25
13,VVWY,≤ 0.25
14,PNMV,≤ 0.25
15,VTNY,≤ 0.25
16,VRFP,≤ 0.25
17,SPSQ,≤ 0.25
18,VYIG,≤ 0.25
